From patent publication US20160075754A1 (PROTALIX, published 2016) come the findings set out here.

This assay deals with T1, Tumor necrosis factor-alpha (TNFα) (human, UniProt P01375 part only).
T1 construct: also called TNF alpha; Recombinant TNFα
Briefly: sandwich ELISA: TNFα captured on an anti-TNFα coated plate, serial dilutions of BY2 cell lysate/supernatant, detection with goat anti human IgG Fc HRP.

T1 sequence (P01375 77-233 limits assumed): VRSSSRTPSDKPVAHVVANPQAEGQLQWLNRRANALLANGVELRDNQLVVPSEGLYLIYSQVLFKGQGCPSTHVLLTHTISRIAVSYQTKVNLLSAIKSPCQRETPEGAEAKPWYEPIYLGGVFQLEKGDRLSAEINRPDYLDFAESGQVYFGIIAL

B1: plant recombinant human (prh) TNFR2:Fc (Fc fusion)
chain: LPAQVAFTPYAPEPGSTCRLREYYDQTAQMCCSKCSPGQHAKVFCTKTSDTVCDSCEDSTYTQLWNWVPECLSCGSRCSSDQVETQACTREQNRICTCRPGWYCALSKQEGCRLCAPLRKCRPGFGVARPGTETSDVVCKPCAPGTFSNTTSSTDICRPHQICNVVAIPGNASMDAVCTSTSPTRSMAPGAVHLPQPVSTRSQHTQPTPEPSTAPSTSFLLPMGPSPPAEGSTGD[human IgG1 Fc and a few adjoining residues cut from this listing]
notes: Expressed in N. tabacum BY2 cells; also called PRX-106; prh TNFR2:Fc-SEKDEL
Turning to B1, the binding result was “binds”.
